Data from US20250243260A1 (ALPINE IMMUNE SCIENCES, published 2025).
Changes are numbered by the printed parent chain. In names and notes the source's numbering stands. Blank lines part the entries; values can stand above or below the binder they belong to.

Molecular target: CD28 on Jurkat/IL2-reporter cells (UniProt P10747 19-220, limits assumed)
Test: cell-based or functional assay

Fold Increase over WT at 50 nM: 3.36 fold
Rel. Luminescence Units (RLU) 2 nM: 3110 RLU
Rel. Luminescence Units (RLU) 10 nM: 4170 RLU
Rel. Luminescence Units (RLU) 50 nM: 8200 RLU
Rel. Luminescence Units (RLU) 250 nM: 13800 RLU
B1: CD80_224 variant CD80 IgV-Fc (K9N, V11W, M47L, V68T, R73T, Y87N) (Fc fusion)
chain: VIHVTKEVNEWATLSCGHNVSVEELAQTRIYWQKEKKMVLTMMSGDLNIWPEYKNRTIFDITNNLSITILALTPSDEGTYECVVLKNEKDAFKREHLAEVTLSVKADGSGGGGS[omitted - human IgG4 Fc with S228P (EU numbers)]

Fold Increase over WT at 50 nM: 1.61 fold
Rel. Luminescence Units (RLU) 2 nM: 2540 RLU
Rel. Luminescence Units (RLU) 10 nM: 2950 RLU
Rel. Luminescence Units (RLU) 50 nM: 3930 RLU
Rel. Luminescence Units (RLU) 250 nM: 8710 RLU
B2: CD80_221 variant CD80 IgV-Fc (E10G, A26S, T28Y) (Fc fusion)
chain: B1 chain with N9K, E10G, W11V, A26S, T28Y, L47M, T68V, T73R, N87Y

Fold Increase over WT at 50 nM: 0.99 fold
Rel. Luminescence Units (RLU) 2 nM: 3000 RLU
Rel. Luminescence Units (RLU) 10 nM: 2470 RLU
Rel. Luminescence Units (RLU) 50 nM: 2420 RLU
Rel. Luminescence Units (RLU) 250 nM: 2520 RLU
B9: CD80_227 variant CD80 IgV-Fc (V11W, T28H, D46Q, V68L, L85E) (Fc fusion)
chain: B1 chain with N9K, T28H, D46Q, L47M, T68L, T73R, L85E, N87Y

Fold Increase over WT at 50 nM: 1.08 fold
Rel. Luminescence Units (RLU) 2 nM: 2360 RLU
Rel. Luminescence Units (RLU) 10 nM: 2750 RLU
Rel. Luminescence Units (RLU) 50 nM: 2630 RLU
Rel. Luminescence Units (RLU) 250 nM: 2980 RLU
B13: CD80_223 variant CD80 IgV-Fc (E10S, V68M, Y87P) (Fc fusion)
chain: B1 chain with N9K, E10S, W11V, L47M, T68M, T73R, N87P

Fold Increase over WT at 50 nM: 1.08 fold
Rel. Luminescence Units (RLU) 2 nM: 2500 RLU
Rel. Luminescence Units (RLU) 10 nM: 2380 RLU
Rel. Luminescence Units (RLU) 50 nM: 2640 RLU
Rel. Luminescence Units (RLU) 250 nM: 2640 RLU
B15: CD80_229 variant CD80 IgV-Fc (V11Y, M47V, A71G, L85E) (Fc fusion)
chain: B1 chain with N9K, W11Y, L47V, T68V, A71G, T73R, L85E, N87Y

Fold Increase over WT at 50 nM: 2.41 fold
Rel. Luminescence Units (RLU) 2 nM: 3490 RLU
Rel. Luminescence Units (RLU) 10 nM: 4450 RLU
Rel. Luminescence Units (RLU) 50 nM: 5880 RLU
Rel. Luminescence Units (RLU) 250 nM: 7660 RLU
B16: CD80_225 variant CD80 IgV-Fc (V11Y, M47L, V68T) (Fc fusion)
chain: B1 chain with N9K, W11Y, T73R, N87Y

Second part, the binder before the results:

B3: CD80_213 variant CD80 IgV-Fc (V11Y, V68T) (Fc fusion)
chain: B1 chain with N9K, W11Y, L47M, T73R, N87Y
Fold Increase over WT at 50 nM: 2.44 fold
Rel. Luminescence Units (RLU) 2 nM: 3120 RLU
Rel. Luminescence Units (RLU) 10 nM: 4110 RLU
Rel. Luminescence Units (RLU) 50 nM: 5960 RLU
Rel. Luminescence Units (RLU) 250 nM: 9250 RLU

B4: CD80_215 variant CD80 IgV-Fc (K9R, E10A, E35G, V68L, L85E) (Fc fusion)
chain: B1 chain with N9R, E10A, W11V, E35G, L47M, T68L, T73R, L85E, N87Y
Fold Increase over WT at 50 nM: 2.2 fold
Rel. Luminescence Units (RLU) 2 nM: 2690 RLU
Rel. Luminescence Units (RLU) 10 nM: 3640 RLU
Rel. Luminescence Units (RLU) 50 nM: 5370 RLU
Rel. Luminescence Units (RLU) 250 nM: 6560 RLU

B5: CD80_206 variant CD80 IgV-Fc (E10G, H18T, Q27T, D46E, M47L) (Fc fusion)
chain: B1 chain with N9K, E10G, W11V, H18T, Q27T, D46E, T68V, T73R, N87Y
Fold Increase over WT at 50 nM: 1.31 fold
Rel. Luminescence Units (RLU) 2 nM: 2820 RLU
Rel. Luminescence Units (RLU) 10 nM: 2710 RLU
Rel. Luminescence Units (RLU) 50 nM: 3200 RLU
Rel. Luminescence Units (RLU) 250 nM: 5630 RLU

B6: CD80_166 variant CD80 IgV-Fc (V11Y, M47V, L85E) (Fc fusion)
chain: B1 chain with N9K, W11Y, L47V, T68V, T73R, L85E, N87Y
Fold Increase over WT at 50 nM: 1.03 fold
Rel. Luminescence Units (RLU) 2 nM: 2620 RLU
Rel. Luminescence Units (RLU) 10 nM: 2460 RLU
Rel. Luminescence Units (RLU) 50 nM: 2510 RLU
Rel. Luminescence Units (RLU) 250 nM: 2670 RLU

B7: CD80_209 variant CD80 IgV-Fc (V11Y, T28R, E35G, M47L, F59S) (Fc fusion)
chain: B1 chain with N9K, W11Y, T28R, E35G, F59S, T68V, T73R, N87Y
Fold Increase over WT at 50 nM: 0.89 fold
Rel. Luminescence Units (RLU) 2 nM: 2510 RLU
Rel. Luminescence Units (RLU) 10 nM: 2200 RLU
Rel. Luminescence Units (RLU) 50 nM: 2180 RLU
Rel. Luminescence Units (RLU) 250 nM: 2300 RLU

B8: CD80-219 variant CD80 IgV-Fc (E10S, V11Y, M42R, A71V) (Fc fusion)
chain: B1 chain with N9K, E10S, W11Y, M42R, L47M, T68V, A71V, T73R, N87Y
Fold Increase over WT at 50 nM: 1.06 fold
Rel. Luminescence Units (RLU) 2 nM: 2190 RLU
Rel. Luminescence Units (RLU) 10 nM: 2440 RLU
Rel. Luminescence Units (RLU) 50 nM: 2580 RLU
Rel. Luminescence Units (RLU) 250 nM: 3880 RLU

B10: CD80_204 variant CD80 IgV-Fc (H18V, V20I, T28Y, E35G, M47V, R73E) (Fc fusion)
chain: B1 chain with N9K, W11V, H18V, V20I, T28Y, E35G, L47V, T68V, T73E, N87Y
Fold Increase over WT at 50 nM: 1.15 fold
Rel. Luminescence Units (RLU) 2 nM: 2740 RLU
Rel. Luminescence Units (RLU) 10 nM: 2830 RLU
Rel. Luminescence Units (RLU) 50 nM: 2800 RLU
Rel. Luminescence Units (RLU) 250 nM: 4010 RLU

B11: CD80-220 variant CD80 IgV-Fc (H18F, T28V, M47L, V68S) (Fc fusion)
chain: B1 chain with N9K, W11V, H18F, T28V, T68S, T73R, N87Y
Fold Increase over WT at 50 nM: 1.01 fold
Rel. Luminescence Units (RLU) 2 nM: 2360 RLU
Rel. Luminescence Units (RLU) 10 nM: 2320 RLU
Rel. Luminescence Units (RLU) 50 nM: 2470 RLU
Rel. Luminescence Units (RLU) 250 nM: 3290 RLU

B12: CD80_165 variant CD80 IgV-Fc (V11Y, M47V, F59S, L85E) (Fc fusion)
chain: B1 chain with N9K, W11Y, L47V, F59S, T68V, T73R, L85E, N87Y
Fold Increase over WT at 50 nM: 1.35 fold
Rel. Luminescence Units (RLU) 2 nM: 2860 RLU
Rel. Luminescence Units (RLU) 10 nM: 3120 RLU
Rel. Luminescence Units (RLU) 50 nM: 3300 RLU

B14: CD80_205 variant CD80 IgV-Fc (E10G, D46K, L85E) (Fc fusion)
chain: B1 chain with N9K, E10G, W11V, D46K, L47M, T68V, T73R, L85E, N87Y
Fold Increase over WT at 50 nM: 0.95 fold
Rel. Luminescence Units (RLU) 2 nM: 2700 RLU
Rel. Luminescence Units (RLU) 10 nM: 2590 RLU
Rel. Luminescence Units (RLU) 50 nM: 2310 RLU
Rel. Luminescence Units (RLU) 250 nM: 2500 RLU
